# Test results: the BET-seq Pho4 binding data (Le et al. 2018)
# This is one part of the list. Values were computed here from the reads of four pooled replicates and scatter widely.
# Biological target: T1, Pho4 (S. cerevisiae) (UniProt P07270)
# T1 sequence: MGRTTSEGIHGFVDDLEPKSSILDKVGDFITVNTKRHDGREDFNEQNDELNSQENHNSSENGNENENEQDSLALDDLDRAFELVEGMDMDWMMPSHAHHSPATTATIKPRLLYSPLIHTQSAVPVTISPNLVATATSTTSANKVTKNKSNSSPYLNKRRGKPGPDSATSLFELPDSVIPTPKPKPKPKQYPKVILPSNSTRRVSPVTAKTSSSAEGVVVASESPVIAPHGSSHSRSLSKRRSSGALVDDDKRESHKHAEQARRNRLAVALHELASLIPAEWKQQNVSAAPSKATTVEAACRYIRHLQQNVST
# Assay: relative binding free energy (BET-seq); higher = weaker binding
# Settings: reference: library average
row,Sequence,relative binding free energy [kcal/mol]
1,GTGCACACGTGGTAGG,0
2,AAGAACACGTGTTAGG,0.03
3,TTTGTCACGTGAATGG,0.33
4,TTTCACACGTGGGGTA,-0.11
5,AGGGACACGTGGTAAT,0.02
6,CATTCCACGTGGGGTG,-0.2
7,CAGTGCACGTGTCTGG,-0.05
8,AGGAGCACGTGGAGGG,-0.18
9,TCCGTCACGTGTTAGT,0.08
10,TACTTCACGTGGCTTT,0.26
11,GGCTACACGTGAGGTG,0.35
12,AGTCTCACGTGGATTT,0.33
13,CGTTTCACGTGAATTG,0.31
14,TTGAGCACGTGATTGA,0.06
15,AGTACCACGTGTGTTA,-0.07
16,AGGTTCACGTGATGCA,0.23
17,TGTGTCACGTGTAAAA,0.27
18,TGGAACACGTGTGAGT,0.03
19,GGTGACACGTGTCGGT,0.17
20,TTGCGCACGTGAGGCT,0.08
21,GGGTTCACGTGGACTA,0.23
22,ATATGCACGTGTTAAG,-0.02
23,GCGTGCACGTGGCGGT,-0.08
24,TTATACACGTGGGTAC,-0.06
25,CATTTCACGTGGAGGT,0.28

row,Sequence,relative binding free energy [kcal/mol]
1,GCGGGCACGTGGTTTG,-0.2
2,TGTGACACGTGGGGTG,-0.21
3,GGGGTCACGTGTATCA,0.06
4,ATGGTCACGTGGGGGA,0.03
5,TGTAGCACGTGGCATG,-0.21
6,GGGGTCACGTGGTTGG,0.18
7,GGGATCACGTGATGCT,0.28
8,TGTGCCACGTGATTGT,0
9,AGTATCACGTGTGCTT,0.13
10,AAAAGCACGTGTGTGT,-0.07
11,TGAAGCACGTGTCAGG,-0.08
12,TGGATCACGTGGAGTT,0.15
13,CTGTACACGTGAGGAT,0.41
14,GGGGGCACGTGGACTC,0.03
15,ATAATCACGTGAATTA,0.45
16,GGGTACACGTGCTTTT,0.12
17,GCATTCACGTGAAGGG,0.43
18,GTTGCCACGTGGGTAA,-0.21
19,GGGGACACGTGCTAGT,-0.12
20,GTGTTCACGTGCCGGG,0.27
21,TTTGACACGTGGTATT,-0.07
22,TTCGTCACGTGGATGT,0.14
23,AGAGGCACGTGGCGGC,-0.28
24,GTATGCACGTGTGGGT,0.05
25,TTGCTCACGTGGTTGT,0.07

row,Sequence,relative binding free energy [kcal/mol]
1,TGGTACACGTGCGGTA,-0.05
2,TGTGACACGTGGTAGC,-0.1
3,AGCTCCACGTGGTGGT,0.06
4,GTGAACACGTGAGTGG,0.33
5,GTAGGCACGTGGTACT,-0.2
6,TAGTCCACGTGTTGGG,0.08
7,TGGCGCACGTGAGTAT,-0.05
8,TTCGTCACGTGGAAGT,0.11
9,TTTCGCACGTGTTCGT,-0.17
10,GGTTTCACGTGTGAGC,0.49
11,CTGGGCACGTGGTGAC,-0.16
12,GGGCGCACGTGTTTTA,-0.09
13,TTGTCCACGTGTGTAG,-0.01
14,TGCTGCACGTGACGTG,0.11
15,TAGTTCACGTGTACGT,0.16
16,TGTGTCACGTGTTAGG,0.06
17,GTTGGCACGTGGGATC,0.02
18,GTTATCACGTGGTTCA,0.13
19,GTTGTCACGTGTGCCG,0.12
20,TTCTACACGTGTATGG,0.11
21,TGCGGCACGTGGCGGA,-0.25
22,GCTTTCACGTGATTGG,0.3
23,CTGTTCACGTGTTGGC,0.19
24,TGGGCCACGTGCTGGG,-0.18
25,CTGGGCACGTGGGAAA,-0.09

row,Sequence,relative binding free energy [kcal/mol]
1,GGGGTCACGTGAGGCA,0.37
2,TATGGCACGTGCAAGT,-0.11
3,AGATGCACGTGAATGG,0.22
4,TCGGTCACGTGGTGAG,0.16
5,TCCGTCACGTGGGTTG,0.04
6,TGGTACACGTGCGTCG,-0.09
7,GTATGCACGTGGCGTA,-0.13
8,AAGGGCACGTGGGGAA,-0.1
9,TTTGACACGTGGTGAA,-0.05
10,GGGGGCACGTGCGGAT,-0.2
11,ACTTTCACGTGGTAGG,0.33
12,TATAGCACGTGAGTTA,0.11
13,CGTATCACGTGTTAGA,0.13
14,CGGTTCACGTGATTAG,0.27
15,TAGGACACGTGAGTTA,0.25
16,TTTGGCACGTGCAGTT,-0.08
17,AGTTGCACGTGGTGCT,-0.06
18,TGTTCCACGTGAGGGC,0.22
19,AGTTTCACGTGAGTTG,0.39
20,TTAAGCACGTGGATAG,-0.18
21,CGGGTCACGTGTGACT,0.23
22,TAGAACACGTGTGTAG,-0.02
23,TGGTTCACGTGTAAAG,0.31
24,CATTTCACGTGGGTGC,0.18
25,TGTAGCACGTGATTGT,0.02

row,Sequence,relative binding free energy [kcal/mol]
1,TGGTGCACGTGTTAAT,0.07
2,TGGTGCACGTGTGTAA,0.05
3,TTACACACGTGAGGTT,0.18
4,AGCAGCACGTGAGTGG,0.19
5,AGTGTCACGTGTGGGA,0.02
6,TACGGCACGTGAGTTT,0.14
7,ATAATCACGTGTTTTC,0.21
8,TTGTTCACGTGGCGGT,0.12
9,TCTAGCACGTGGTTAA,-0.05
10,GGGGTCACGTGCTGTG,0.14
11,ATGTGCACGTGATCGG,0.05
12,ATGTTCACGTGTAAGT,0.17
13,TGTGGCACGTGTATGA,-0.08
14,GTGCGCACGTGGATGG,-0.07
15,CGCGTCACGTGGTTGT,0.09
16,GTAATCACGTGCTGGG,0.01
17,TAAGGCACGTGTGATA,-0.01
18,TTGGACACGTGGACGT,0.11
19,GTGTGCACGTGGAATA,0.01
20,TTGGTCACGTGCTTTT,0.11
21,TGTAACACGTGCATGG,-0.06
22,CGAATCACGTGTTGGT,0.07
23,TTATACACGTGTGATA,0.21
24,AGAGTCACGTGGAGCG,0.25
25,TAGATCACGTGTGGTG,0.24

row,Sequence,relative binding free energy [kcal/mol]
1,GGAGGCACGTGAGGGT,0.13
2,TAGAGCACGTGGCTTT,-0.06
3,GCCTGCACGTGGGGGG,-0.12
4,TAGAACACGTGTTATG,0.02
5,AATCTCACGTGTTATG,0.15
6,TGGGCCACGTGGATGG,-0.04
7,ATAGACACGTGGTGAG,-0.05
8,GTGGGCACGTGCAGGC,-0.21
9,GTTTTCACGTGTGGAG,0.42
10,AGCTCCACGTGGGTTG,-0.05
11,AATGTCACGTGTAAGT,0.14
12,GATTGCACGTGGTACG,-0.03
13,CATTTCACGTGGGGTT,0.11
14,AATTACACGTGGCGGT,0.1
15,GGTTACACGTGTGTGC,0.12
16,AATGACACGTGTTATG,0.02
17,CTGGGCACGTGGTTAA,-0.09
18,TTGCTCACGTGGGGTC,-0.03
19,TGAGGCACGTGTTCTG,-0.09
20,GTCGGCACGTGGTTTA,-0.17
21,ATCATCACGTGGGCGG,0.13
